Reference: paper PMC4336329 (PLoS ONE, 2015)
Hit rate of the full screen: of about 310,000 compounds, about 14,000 (4.5%) showed an effect of 50% or more. Effects have a minus sign here. Some of the results follow.

What follows are compounds tested against human ether-à-go-go-related gene (hERG) potassium channel (human, UniProt Q12809) (assay: primary screen, population patch clamp on CHO cells stably expressing hERG).
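Note: peak tail current of the secondary pulse compared with the same well before compound.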

Sequence of human ether-à-go-go-related gene (hERG) potassium channel (Q12809 whole entry, looked up): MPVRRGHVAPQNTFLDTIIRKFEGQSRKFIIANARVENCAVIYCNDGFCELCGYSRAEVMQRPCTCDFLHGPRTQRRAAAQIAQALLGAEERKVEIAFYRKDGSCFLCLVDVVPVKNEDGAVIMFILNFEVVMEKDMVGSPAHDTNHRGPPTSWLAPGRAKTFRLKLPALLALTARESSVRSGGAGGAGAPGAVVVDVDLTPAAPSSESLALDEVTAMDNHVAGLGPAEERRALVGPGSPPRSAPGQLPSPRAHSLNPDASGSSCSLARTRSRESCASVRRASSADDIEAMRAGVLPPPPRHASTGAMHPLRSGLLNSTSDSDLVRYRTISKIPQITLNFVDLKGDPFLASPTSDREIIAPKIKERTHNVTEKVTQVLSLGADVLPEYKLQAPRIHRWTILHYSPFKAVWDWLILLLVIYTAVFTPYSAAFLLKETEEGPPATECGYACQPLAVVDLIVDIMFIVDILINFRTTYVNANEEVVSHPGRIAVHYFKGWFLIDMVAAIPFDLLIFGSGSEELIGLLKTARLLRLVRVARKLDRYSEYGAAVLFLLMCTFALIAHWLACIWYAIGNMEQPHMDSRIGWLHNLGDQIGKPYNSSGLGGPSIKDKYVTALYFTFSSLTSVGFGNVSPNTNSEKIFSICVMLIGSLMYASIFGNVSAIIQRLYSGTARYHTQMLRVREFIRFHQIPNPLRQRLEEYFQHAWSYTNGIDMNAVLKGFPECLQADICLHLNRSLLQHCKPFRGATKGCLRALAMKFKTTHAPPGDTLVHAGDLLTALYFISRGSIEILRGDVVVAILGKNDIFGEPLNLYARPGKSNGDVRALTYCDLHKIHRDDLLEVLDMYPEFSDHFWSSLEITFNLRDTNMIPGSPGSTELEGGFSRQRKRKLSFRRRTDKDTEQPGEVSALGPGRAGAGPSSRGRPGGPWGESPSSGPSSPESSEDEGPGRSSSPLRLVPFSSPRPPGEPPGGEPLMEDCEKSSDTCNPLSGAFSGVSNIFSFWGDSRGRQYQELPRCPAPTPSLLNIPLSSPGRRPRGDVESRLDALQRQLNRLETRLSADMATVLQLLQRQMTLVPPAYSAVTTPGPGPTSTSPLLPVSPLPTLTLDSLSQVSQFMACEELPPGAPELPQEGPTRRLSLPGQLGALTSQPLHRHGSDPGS

SMILES	hERG current change (%, negative = inhibition) at 10uM [%]
O=C(NCc1cccs1)c1cccnc1SCCS(=O)(=O)c1ccc(C(F)(F)F)cn1	-1.44
CCN(CC)CCN(Cc1cc2ccc(C)cc2[nH]c1=O)C(=O)NC1CCCCC1	-73.1
Cc1nc(N2CCC(C)CC2)c(C#N)c(C)c1[N+](=O)[O-]	-10.8
COc1ccc(C(=O)N2CCn3c2nc2ccccc23)cc1	-14.1
CCNc1nc(NC(C)C)nc(Oc2ccc(OCCOc3ccccc3)nn2)n1	-25.5
S=C(Nc1ccccc1)N1N=CCC1c1ccccc1 (stereo not drawn)	-18.9
CCCn1cc(CN2CCC(Cc3cccc(F)c3)(C(=O)OCC)CC2)c(C)n1	-67.2
CCSc1nnc(-c2ccncc2)o1	34.1
CC(C)NC(=O)COC(=O)c1cc(F)c(F)cc1Cl	25.2
NNC(=O)c1cc(O)c(O)c(O)c1	20.8
O=C(CCCC1=NS(=O)(=O)c2ccccc2N1)N1CCN(c2ccc(Cl)cc2)CC1	-61.1
O=C(O)/C=C/C(=O)NNC(=O)c1ccc(Br)cc1	3.76
O=c1oc(-c2ccccc2)nc2sc3c(c12)CCC3	0.375
C=CCNC(=O)C1CCN(S(=O)(=O)c2ccccc2)CC1	-2.98
CCOC(=O)Cc1csc(NC(=O)CSc2nnnn2-c2ccc(F)cc2)n1	-12
O=C(O)C1CCCCN1C(=O)c1ccc(S(=O)(=O)N2CCCCCC2)cc1 (stereo not drawn)	14.4
COc1ccc(C(=O)O)cc1S(=O)(=O)N(C)CCc1ccccn1	29.5
Cc1ccccc1-c1nc(CN2CCSCC2)c(C)o1	-6.39
COc1ccc(/C=C/C(=O)c2nc3ccccc3n2CC(=O)c2ccc(OC)cc2)cc1	-0.153
CCCCc1ccc(-c2nc(-c3ccncc3)no2)cc1	16
Cc1c(Cl)cccc1NC(=S)NCc1ccc(F)cc1	7.42
CSc1ccccc1OCc1cc(C(=O)N(C)CCn2nc(C)cc2C)no1	-3.8
CN(CC(=O)Nc1ccccc1Br)C(=O)c1cc(Cl)nc2ccccc12	-20.1

SMILES	hERG current change (%, negative = inhibition) at 10uM [%]
S=C(Nc1cccc(Br)c1)c1ccccc1	-21.7
CCOCCCNC(=O)c1ccccc1OC1CCN(S(C)(=O)=O)CC1	15.5
CCCN(Cc1cc(=O)[nH]c2ccccc12)C(=O)CC	18.5
O=c1oc2ccccc2c(N2CCCC2)c1[N+](=O)[O-]	14.5
CCC(=O)N1CCN(c2ccccc2NC(=O)COc2cccc(C)c2)CC1	-38.2
Br.Cc1ccc(C(=O)Cn2c(NCCO)nc3ccccc32)cc1	-8.18
Cc1ccc(-c2nnc(SCC(=O)N/N=C/c3cccs3)n2-c2ccc(C)cc2)cc1	4.75
COc1ccc(OCCC(=O)N2CCOCC2)cc1	7.32
COc1ccc2c(c1)OC[C@H]1[C@H]2N2C(=O)[C@H](C)NC(=O)[C@@]2(C)[C@H]1c1ccccc1	14
Nc1n[nH]c(N)c1N=Nc1ccc2c(c1)OCO2	9.43
CCC(=O)Nc1nnc(S(=O)(=O)N2CCCc3ccccc32)s1	2.92
COc1ccc2sc(NC(=O)CC(C)C)nc2c1	-21
Cn1nc(C(=O)N2CCC(C(N)=O)CC2)c2c1-c1ccccc1SC2	-14.3
CNC(=S)N(Cc1ccc(OC)cc1)Cc1cc2cc(C)ccc2[nH]c1=O	18
COc1ccccc1N1CCN(C(c2ccccn2)c2nnnn2C2CCCCC2)CC1 (stereo not drawn)	-8.34
CC(N)C(=O)NC(C(=O)N1CCCC1C(=O)NC(c1ccccc1)c1ccccc1)C(C)C.O=C(O)C(F)(F)F (stereo not drawn)	-3.44
CCCCn1cnc(C(=O)OCC)c1N	-10.3
CCOC(=O)C(=CNc1ccc(-c2ccco2)c(Cl)c1)C(=O)OCC	-13.9
CCOc1ccc(-c2[nH]ncc2-c2csc(C)n2)c(O)c1	-2.1
CCOCc1nnc(NC(=O)c2cc(C(=O)OC)cc([N+](=O)[O-])c2)s1	21.3
CCN(CC)CCN(Cc1cc2cc3c(cc2[nH]c1=O)OCO3)C(=S)NCCCN(C)C	10.2
CC[C@]1(O)C[C@@H]2CN(CCc3c([nH]c4ccccc34)[C@@](C(=O)OC)(c3cc4c(cc3OC)N(C)[C@H]3[C@@](O)(C(=O)OC)[C@H](OC(C)=O)[C@]5(CC)C=CCN6CC[C@]43[C@@H]65)C2)C1.O=S(=O)(O)O	7.12
Cc1cc(NC(=O)CN2C(=O)NC(c3ccccc3)(c3ccc(C)c(C)c3)C2=O)no1 (stereo not drawn)	-48.5

SMILES	hERG current change (%, negative = inhibition) at 10uM [%]
CN(CC12CC3CC(CC(C3)C1)C2)C(=O)c1ccco1	-2.91
CCN1C(=O)/C(=C/N2CCc3ccccc32)SC1=S	21.7
CCn1nnnc1NC(=O)c1cc(OC)c(OC)c(OC)c1	1.4
CCC(=O)N1CCN(c2nnc(-c3ccccc3)c3ccccc23)CC1	-13.5
CN(C(=O)COc1ccc(Br)cc1Cl)C1CCCCC1	-0.252
CC(=O)Nc1coc2ccc(Br)cc12	-8.07
CCCOc1ccc(C(=O)NCc2cccnc2)cc1	-1.45
O=C(NNS(=O)(=O)c1ccc(C(F)(F)F)cc1)c1cnn(-c2ccccc2)c1C(F)(F)F	11.5
COc1cccc2c1c(NC(=O)Nc1ccc(F)cc1F)nn2C	15.3
CCOC(=O)N1CCC(N2C(=O)c3ccccc3C2=O)CC1	-14.6
Cc1ccc(-c2nc(N)sc2CC(=O)OCC(=O)NC2CCCC(C)C2C)cc1 (stereo not drawn)	-6.2
COC(=O)Cn1cc(/C=N/NC(=O)c2ccc(C#N)cc2F)c2ccccc21	-12.1
CN(CC(=O)Nc1ccc(F)cc1)C(=O)c1ccncc1	8.83
CC1CN(Cc2nc3c(c(=O)n(C)c(=O)n3C)n2CC(=O)c2ccccc2)CC(C)O1 (stereo not drawn)	6.25
CCOC(=O)c1c(Cl)c(C)nn1-c1nc(OC)cc(OC)n1	2.65
S=C1N(c2ccccc2)C(c2ccc(Cl)cc2)N2CCCN12 (stereo not drawn)	-6.19
CCN(CC)CCN(C)C1CCC(c2ccccc2)CC1 (stereo not drawn)	-4.92
C=CCSc1nnc(-c2ccccc2NC(=O)CC)c(=O)[nH]1	1.91
COc1cccc(NS(=O)(=O)Cc2ccccc2)c1	10.4
CNP(=S)(NC)OCCOc1ccc(OC)cc1	4.07
Cc1ccccc1OCC(=O)O/N=C(\N)Cc1cccs1	5.34
COc1ccc(CC(NC(C)=O)C(=O)NC2CCN(S(=O)(=O)c3ccccc3)CC2)cc1OC (stereo not drawn)	8.73
Cc1ccc(NC(=O)N2CCCCC2)cc1NC(=O)N1CCCCC1	16.5

SMILES	hERG current change (%, negative = inhibition) at 10uM [%]
O=C(c1cccc(Cl)c1)C1CCCN(Cc2ccon2)C1 (stereo not drawn)	-26.3
O=C(NCCCc1nc2ccccc2[nH]1)c1ccc(F)cc1	-8.92
CCc1ccc(OCC(=O)N2CCc3ccccc32)cc1	11.4
Cc1ccc(-c2nn(-c3ccccc3)cc2NC(=O)c2ccccc2)cc1	8.71
Oc1ccc(-c2csc(Nc3ncccn3)n2)c(O)c1	26.1
Cc1cc(C)cc(NC(=O)N2CCC(C(=O)c3ccc(F)cc3)CC2)c1	-77.7
O=C(N/N=C\c1ccc([N+](=O)[O-])s1)C1COc2ccccc2O1 (stereo not drawn)	-28
CC(=O)c1ccccc1NC(=O)COC(=O)CN1C(=O)C2CCCCC2C1=O (stereo not drawn)	2.92
O=C(/C=C/c1ccccc1[N+](=O)[O-])NCc1ccccc1Cl	22.7
CC(=O)Nc1ccc(CN2CCCN(C)CC2)cc1	12.3
COc1cccc(-n2c(Cc3cc(=O)[nH]c(=O)[nH]3)nnc2SCC(=O)N2CCCC2)c1	0.535
COC(=O)CNC(=O)c1nn(-c2cccc(OC)c2)c(=O)c2ccccc12	-5.31
Nc1ccc(NS(=O)(=O)c2ccccc2)cc1	6.77
COc1cccc(CN2CC(C(=O)NCc3ccc(C)c(F)c3)CCC2=O)c1 (stereo not drawn)	-40.8
C=CCn1c(=O)c2c(C)c(C)sc2n2c(Nc3ccccc3)nnc12	11.6
Cc1ccc(S(=O)(=O)N2CCCC2C(=O)OCc2nc3sc(C)c(C)c3c(=O)[nH]2)cc1 (stereo not drawn)	21.4
CCCOc1ccc(/C(O)=C2/C(=O)C(=O)N(CCCn3ccnc3)C2c2ccco2)cc1 (stereo not drawn)	13.9
CCOc1cc(C(=O)Nc2ccc(F)cc2)cc(Br)c1OC	18.9
O=C(Nc1ccc(F)c(F)c1)C1CCCN(S(=O)(=O)c2cccc3nonc23)C1 (stereo not drawn)	20.8
O=c1[nH]c(=O)n(Cc2ccc(F)cc2)c(O)c1C=NCc1cccnc1	-8.86
O=C(Cn1ccnc1)c1ccc(Cl)cc1	4.52
